This is one part of the list.
test system: T1, C. trachomatis L2/434/Bu expressing GFP (CTL2-GFP); set-up: species or system HeLa; C. trachomatis total inclusion area by high-content imaging, normalised to DMSO; settings: total inclusion area; 28.5 h, 10 µM; inhibitor
T1 construct: L2/434/Bu GFP intracellular growth in HeLa cells
Method in brief: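 Following bulk GFP and resorufin fluorescence reads, infected cells were fixed, Hoechst-stained and imaged on a high-content platform. Inclusion total area and number per well served as growth proxies; nuclei counts indicated host viability. MICs were derived as for the fluorescence assay.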

| SMILES | % of control remaining |
| --- | --- |
| c1ccc(CNc2nc(-c3ccco3)cn3ccnc23)cc1 [CBK037955] | 119.118 |
| Cc1nc2c(OCc3ccccc3)cccn2c1N(C)C(=O)C1CCCCC1 [CBK147884] | 105.111 |
| O=C(O)c1cccc(-c2ccc(/C=N/NC(=O)c3sc4ccccc4c3Cl)o2)c1 [CBK263863] | 105.777 |
| Cc1nccn1CCNC(=O)CCc1nc2ccccc2n1C [CBK281978] | 101.081 |
| COC(=O)c1ccc(-c2ccc3[nH]ccc3c2)nc1 [CBK160174T] | 98.5425 |
| Cc1cccc(N(CC(=O)Nc2ccc3c(c2)oc2ccccc23)S(=O)(=O)c2ccccc2)c1 [CBK264813] | 116.171 |
| Fc1ccccc1C1CCN(c2cncc(N3CCNCC3)n2)CC1 [CBK172236G] | 30.0276 |
| COc1ccc(NC(=O)c2ccc(-c3nnn[nH]3)cc2)cc1OC [CBK295138] | 111.751 |
| O=C(Cc1cccc2ccccc12)NC(=S)Nc1ccc(S(=O)(=O)N2CCCCC2)cc1 [CBK266283] | 93.7841 |
| CC(C)(C)c1ccc(-c2cc3ncccc3nc2N)cc1 [CBK081199] | 86.847 |
| O=C(Nc1ncc(-c2ccccc2)s1)c1cccc([N+](=O)[O-])c1 [CBK157055] | 50.0716 |
| CCn1cc(CN(CCN(C)C)Cc2ccc(C)o2)c(C)n1 [CBK282845] | 102.599 |
| CC(C)(C)c1cn(C[C@H]2CC3CCN2C[C@@H]3C(=O)Nc2nccs2)nn1 (stereo partly shown) [CBK288737] | 107.061 |
| O=C(Nc1ccc(F)cc1)c1ccsc1NS(=O)(=O)Cc1ccccc1 [CBK042303] | 108.323 |
| CC(OCc1ccccc1)C(=O)NCC1(N2CCOCC2)CCSC1 (stereo not shown) [CBK305678] | 56.0381 |
| CCN(CC(=O)NCc1ccc(Cl)cc1)S(=O)(=O)c1ccc(OC)cc1 [CBK305836] | 63.8975 |
| COc1ccc2c(c1)C1(CC(=O)N(CCc3scnc3C)C1=O)C(=O)N2Cc1ccccc1 (stereo not shown) [CBK075240] | 97.6548 |
| N#Cc1ccccc1CSCCNC(=O)c1ccc(NC(=O)c2ccco2)s1 [CBK296749] | 86.1113 |
| COc1ccc(C)cc1S(=O)(=O)N(CC(=O)N1CCN(C)CC1)c1cccc(C(F)(F)F)c1 [CBK269355] | 79.3021 |
| CC(C)c1ccc(CNC(=O)C2(c3ccccc3)CCCC2)cc1 [CBK161531] | 85.9165 |
| CCc1onc(C)c1NC(=O)NC1CC2(CCCC2)Oc2ccccc21 (stereo not shown) [CBK305890] | 40.6122 |
| COC(=O)CNC(c1ccccc1)c1cc(Br)ccc1NC(C)=O (stereo not shown) [CBK262976] | 92.2463 |
| COc1ccc(-c2ccc(OCCNC(=O)c3cccc(F)c3)nn2)cc1 [CBK294428] | 96.071 |
| O=C(CCc1cccnc1)N1CCCc2ccccc21 [CBK200344] | 84.7549 |
| COc1ccc(NC(=O)C2CCCN2S(=O)(=O)c2ccc(OC)cc2)cc1 (stereo not shown) [CBK070001] | 112.267 |
| O=C(CCCc1nc(-c2ccccc2Cl)no1)NCc1cccnc1 [CBK269516] | 87.6144 |
| COc1ccc(-c2cccc(CC3(C(=O)NCc4cccs4)CCOCC3)c2)cc1 [CBK286514] | 96.2614 |

| SMILES | % of control remaining |
| --- | --- |
| O=C(Nc1cccc(-c2nc3ncccc3o2)c1)c1ccc(Cl)c([N+](=O)[O-])c1 [CBK262845] | 75.0233 |
| CC(C)(C)NC(=O)Cn1nc(-c2cc3c(s2)CCC3)oc1=O [CBK284714] | 65.4562 |
| N#CCCN(CCN1CCCC1)S(=O)(=O)c1cccc2nsnc12 [CBK261141] | 97.5385 |
| CC(C)(C)c1ccc(-c2cc3ncccc3nc2O)cc1 [CBK081302] | 95.2023 |
| CC1(C)Cc2nc(N3CCOCC3)ncc2C(NC(=O)c2cn[nH]c2)C1 (stereo not shown) [CBK307409] | 62.9299 |
| CC(C)(C)OC(=O)N1CCC2(CC1)NC(=O)c1cc(-c3cccc4ncccc34)ccc1O2 [CBK083674] | 89.8179 |
| C=CCN1C(=O)C2(CC(=O)N(C)C2=O)c2ccccc21 (stereo not shown) [CBK075137] | 76.0812 |
| O=C(Nc1nnc(-c2ccccc2)o1)c1ccc2ncsc2c1 [CBK287598] | 105.004 |
| CCNC(=O)NC(=O)C1CCN(CCc2ccc(O)c(OC)c2)CC1 [CBK035184] | 99.9355 |
| Cc1ccc(S(=O)(=O)NC(=O)NCCCCNC(=O)NS(=O)(=O)c2ccc(C)cc2)cc1 [CBK296078] | 98.6827 |
| CCCc1[nH]nc(O)c1Cc1ccc(C(F)(F)F)cc1 [CBK075014] | 79.5634 |
| CCCc1[nH]nc(O)c1C(=O)c1c(F)cccc1Cl [CBK103524] | 66.981 |
| CC1Cc2cc(C(=O)C3=C(O)C(=O)N(Cc4ccco4)C3c3cccnc3)ccc2O1 (stereo not shown) [CBK266236] | 105.035 |
| COc1c(C)cc(-c2ncnc(C)c2C)cc1C [CBK306884] | 80.6932 |
| Cc1ccc(OCc2ccccc2)c(C(CCN(C(C)C)C(C)C)c2ccccc2)c1 (stereo not shown) [CBK017906] | 39.3016 |
| O=C(CS(=O)(=O)Cc1ccccc1)Nc1ccc(S(=O)(=O)N2CCCCCC2)cc1 [CBK266653] | 119.276 |
| O=C(CSc1nc(Nc2ccccc2)nc(N2CCOCC2)n1)N1CCN(c2ccccc2)CC1 [CBK269078] | 101.685 |
| CCN1CC2(CCC1=O)CCN(Cc1nnc(-c3cccnc3)o1)CC2 [CBK307137] | 46.357 |
| Cc1c(F)cccc1CNC1CCC(NC(=O)OC(C)(C)C)CC1 (stereo not shown) [CBK056691] | 105.96 |
| Nc1nnc2c(C(F)(F)F)nc3ccccc3n12 [CBK021345] | 54.8047 |
| Cc1ccc(OC(=O)c2cc(Cl)cnc2Cl)cc1 [CBK090321] | 47.3742 |
| O=C(c1n[nH]cc1Cl)N1CCCC(c2cc3ccccc3cn2)C1 (stereo not shown) [CBK285062] | 109.192 |
| CS(=O)(=O)CCNC(=O)c1cnc(-c2ccc(F)cc2)c(-c2cccnc2)c1 [CBK038066] | 87.9448 |
| Cc1cc(C(C)(C)C)cc(S(=O)(=O)Nc2ccc(C(=O)O)c(O)c2)c1C [CBK299820] | 98.0998 |
| COC(=O)c1ccc(SCc2nc(N3CCOCC3)c3c(c2C#N)CC(C)(C)OC3)o1 [CBK019077] | 117.768 |
| O=C(NC(c1ccccc1)c1ccco1)C1CCN(C(=O)CCC2CCCC2)CC1 (stereo not shown) [CBK059887] | 115.059 |
| O=C(O)CCCNC(=O)c1ccncc1 [CBK261146] | 99.2383 |

| SMILES | % of control remaining |
| --- | --- |
| COc1cc2ccccc2cc1C(=O)Nc1nnc(-c2ccncc2)o1 [CBK287432] | 78.5975 |
| COC(C)c1nc(C)c(C(=O)NC2CCCN(c3ccn(C)n3)C2=O)s1 (stereo not shown) [CBK305454] | 50.7252 |
| CCCCc1nccc(-c2ccc(OCC)c(C(=O)O)c2)n1 [CBK307429] | 66.7247 |
| NC(=O)c1c(NC(=O)c2ccc(COc3cc(Cl)ccc3Cl)o2)sc2c1CCCC2 [CBK265775] | 87.7346 |
| Cn1c(CSc2nc3sc4c(c3c(=O)[nH]2)CCCC4)nnc1SC/C=C/c1ccccc1 [CBK264428] | 96.6023 |
| NC(=O)c1c(NC(=O)C2CC(=O)OC23CCCCC3)sc2c1CCCCC2 (stereo not shown) [CBK264189] | 110.446 |
| Cc1c(C)n(Cc2ccco2)c2ncnc(N3CCC(C(=O)O)CC3)c12 [CBK307599] | 84.9701 |
| CN(CC1CCCCC1)C(=O)c1cc2ccsc2[nH]1 [CBK304518] | 73.1689 |
| CN(C(=O)C1CCCO1)c1nc2c(s1)CCc1occc1-2 (stereo not shown) [CBK283483] | 75.4948 |
| CC(=O)Nc1ccc(-c2ccc(C(=O)N3CCN(C(=O)N4CCCC4)CC3)cn2)cc1 [CBK160187] | 73.5656 |
| c1cncc(-c2cn3ccnc3c(NC3CCCCC3)n2)c1 [CBK093606] | 104.627 |
| Cc1cc(Cc2ccccc2F)cc(C2CCN(C(=O)c3nc4ccc(F)cc4[nH]3)CC2)n1 [CBK285932] | 110.708 |
| CC(C)Cn1cnc(S(=O)(=O)N2CCC(OCc3ccncc3)C2)c1 (stereo not shown) [CBK305456] | 35.8094 |
| N#C/C(=C/c1cn(CC(=O)O)c2ccccc12)c1ccc(C(=O)O)cc1 [CBK268977] | 111.819 |
| Cn1cccc1C(=O)NCc1ccccc1OC1CCNC1 (stereo not shown) [CBK029463T] | 101.238 |
| CC1(C)COC(CCN2CCN(c3ccc(F)cc3)CC2)c2ccccc21 (stereo not shown) [CBK024080C] | 65.614 |
| Cc1cc(S(=O)(=O)N(c2ccc(C(C)(C)C)cc2)C2CCNCC2)c(C)s1 [CBK165075T] | 11.7808 |
| c1ccc2[nH]c(CCSCCc3nc4ccccc4[nH]3)nc2c1 [CBK023949] | 86.4026 |
| Cn1cc(C(c2ccccc2OCC(=O)O)c2cn(C)c3ccccc23)c2ccccc21 [CBK266410] | 132.392 |
| O=C(Nc1ccc(Cl)cc1)Nc1cc(S(=O)(=O)N2CCCC2)ccc1Cl [CBK266122] | 100.582 |
| O=C(COc1ccc2ccccc2c1)NCCN1CCOCC1 [CBK265444] | 84.4171 |
| O=C(NCc1cccc2ccccc12)C1(c2ccccc2)CCCC1 [CBK149534] | 110.881 |
| CN1CCN([C@H]2[C@@H]3OC[C@@H](O3)[C@@H](NCc3ccc(N(C)C)cc3)[C@@H]2O)CC1 [CBK288824] | 112.005 |
| NC(=S)c1c(Cl)cc(C(F)(F)F)cc1Cl [CBK011349] | 11.1295 |
| COc1ccc(C[C@@H]2NC(=O)[C@H]3CN(C(=O)c4cccc(F)c4)CCN3C2=O)cc1 [CBK289604] | 107.331 |

Source: PMC12040169 (PLOS Biology, 2025)
